Experiment in all cases: Primary Screen for Target Class Profiling of Small Molecule Inhibitors of Methyltransferases
Assay [1] addresses Glycine N-methyltransferase (Homo sapiens) (UniProt Q14749). As to conditions: purified enzyme, MTase-Glo SAH luminescence; measured here: GNMT inhibition; at 40 µM; stronger effect = lower value. The method in brief: (§1)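 Each enzyme was assayed with SAM and its substrate. SAH formation detected by MTase-Glo luminescence; single-point 40 uM screen[…].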
Assay [2] has as its target Guanidinoacetate N-methyltransferase (Homo sapiens) (UniProt Q14353). The conditions noted are these: purified enzyme, MTase-Glo SAH luminescence; measured here: GAMT inhibition; at 40 µM; stronger effect = lower value. The gist of the method: as §1
Assay [3] addresses Histamine N-methyltransferase (Homo sapiens) (UniProt P50135). As to conditions: purified enzyme, MTase-Glo SAH luminescence; measured here: HNMT inhibition; at 40 µM; stronger effect = lower value. The gist of the method:
as §1

Assay [4] has as its target Nicotinamide N-methyltransferase (Homo sapiens) (UniProt P40261). As to conditions: purified enzyme, MTase-Glo SAH luminescence; measured here: NNMT inhibition; at 40 µM; stronger effect = lower value. The gist of the method: as §1
Assay [5] deals with Phenylethanolamine N-methyltransferase (Homo sapiens) (UniProt P11086). The conditions noted are these: purified enzyme, MTase-Glo SAH luminescence; measured here: PNMT inhibition; at 40 µM; stronger effect = lower value. The gist of the method: as §1

This is one part of the list. The main result of the screen is listed elsewhere. These columns were measured beside it and carry no call.
% is set by controls: 0 for no effect and ±100 for the full control effect.

With `CCOc1cccc(C2c3cccn3-c3sc4c(c3CN2C(=O)Nc2ccc(C)cc2)CCCC4)c1` (stereo not given), the activity change, negative = inhibition in assay [1] was 1.81%; in assay [2] it was 0%; in assay [3], 1.53%; in assay [4], -0.587%; in assay [5], 6.05%.
With `CCOc1ccc(CCN2C(=O)c3cc4ccccc4n3CC2(C)C(=O)NCc2ccccc2OC)cc1` (stereo not given), the activity change, negative = inhibition in assay [1] is 2.95%; in assay [2], 3.96%; in assay [3] it was 0.622%; in assay [4] it was 6.88%; in assay [5], -0.445%.
On to `CC1CCCCC1NC(=O)C1(C)Cn2c(nc3ccccc32)C(=O)N1Cc1ccccc1` (stereo not given), for which the activity change, negative = inhibition came to 6.76% in assay [1]; 0% in assay [2]; 6.37% in assay [3]; 7.8% in assay [4]; 4.43% in assay [5].
Regarding `O=C(CSc1nnc2n(Cc3ccc(F)cc3)c(=O)c3ccccc3n12)Nc1cccc(F)c1`, the activity change, negative = inhibition in assay [1] is 3.09%; in assay [2], 0%; in assay [3], 10.5%; in assay [4] it was -4.17%; in assay [5] it was 5.9%.
Taken in the same sequence, the figures for `COCCCNC(=O)C1CCCN1Cc1cccc(-c2ccc(C)c(Cl)c2)c1` (stereo not given) were -3.18%, 4.14%, 0.711%, -4.37% and 5.58%.
In the case of `CC(C)Cn1c(=O)c2ccc(C(=O)NC(C)C)cc2n2c(SCc3ccccc3Cl)nnc12`, the activity change, negative = inhibition in assay [1] was determined as 3.86%; in assay [2] it was 0%; in assay [3], 4.46%; in assay [4], 5.79%; in assay [5], 4.93%.
For `Cc1ccc(CC(=O)N2CCN(c3cc(C(F)(F)F)ncn3)CC2)cc1`, the activity change, negative = inhibition in assay [1] is -3.73%; in assay [2], 1.87%; in assay [3], -0.314%; in assay [4], -1.07%; in assay [5], -3.97%.
As to `CSc1cccc(N2C(=O)c3cc(C(C)(C)C)nn3CC2(C)C(=O)NCc2ccccc2)c1` (stereo not given), the activity change, negative = inhibition in assay [1] is -4.13%; in assay [2], 3.4%; in assay [3], -4.03%; in assay [4], -5.98%; in assay [5] it was -2.9%.
In the same order, the values of `COC(=O)c1ncn2c1C(=O)N(Cc1ccc(F)cc1)C(C)(C(=O)NC1CCCCCC1)C2` (stereo not given) are 2.13%, 3.27%, 2.7%, -2.16% and 0.3%.
Turning to `O=C([C@@H]1C[C@H](F)CN1C(=O)Cc1ccccc1F)N1CCCCC1`, the activity change, negative = inhibition is -2.09% in assay [1]; -5.72% in assay [2]; 0.386% in assay [3]; -9.73% in assay [4]; -6.04% in assay [5].
Regarding `CC(C)Cn1c(=O)c2ccc(C(=O)NC(C)C)cc2n2c(=O)n(Cc3cccc(Cl)c3)nc12`, the activity change, negative = inhibition stood at 6.01% in assay [1]; 0% in assay [2]; 4.21% in assay [3]; 5.29% in assay [4]; 8.22% in assay [5].
For `Cc1ccccc1Cn1nc2n(Cc3ccccc3)c(=O)c3ccc(C(=O)NC(C)C)cc3n2c1=O`, the activity change, negative = inhibition was found to be 3.54% in assay [1]; 0.852% in assay [2]; 6.53% in assay [3]; 1.73% in assay [4]; 3.21% in assay [5].
Take `CCc1nc2c(c(-c3ccc(O)cc3)n1)CCN(Cc1ccc(F)cc1)CC2`: the activity change, negative = inhibition in assay [1] is -5.65%; in assay [2], -6.59%; in assay [3] it was -5.1%; in assay [4], -15.2%; in assay [5] it was -10.2%.
For `O=C(c1ccccc1OCC1CCCN(Cc2nccs2)C1)N1CCCC1` (stereo not given), the activity change, negative = inhibition in assay [1] is -8.56%; in assay [2], -8.43%; in assay [3], -15.8%; in assay [4] it was -12.1%; in assay [5] it was -8.89%.
As for `Cn1ccc(NC(=O)c2cc(Oc3ccc(C(=O)N4CCC4)c(F)c3)c3c(c2)OC(C)(C)C3)n1`, the activity change, negative = inhibition in assay [1] was -3.76%; in assay [2], -3.76%; in assay [3], 1.61%; in assay [4], -21.6%; in assay [5], -5.04%.
For the compound `COc1cc(CN2CCN(Cc3ccc(-n4cccn4)cc3C)CC2CCO)cc(OC)c1` (stereo not given), the activity change, negative = inhibition in assay [1] was -7.82%; in assay [2], -4.76%; in assay [3], -4.47%; in assay [4] it was -18.9%; in assay [5], -10.5%.
Regarding `CC1(C)CC[C@]2(C(=O)O[C@@H]3O[C@H](CO)[C@@H](O)[C@H](O)[C@H]3O)CC[C@]3(C)C(=CCC4[C@@]5(C)CC[C@H](O[C@@H]6O[C@H](C(=O)O)[C@@H](O[C@@H]7O[C@H](CO)[C@@H](O)[C@H](O)[C@H]7O)[C@H](O)[C@H]6O)C(C)(C)C5CC[C@]43C)C2C1` (stereo not given in full), the activity change, negative = inhibition in assay [1] was 2.72%; in assay [2] it was 12.7%; in assay [3] it was 4.68%; in assay [4], -3.9%; in assay [5], 10.8%.
On to `C[C@H](Cc1ccccc1)Nc1ncnc2c1ncn2[C@@H]1O[C@H](CO)[C@@H](O)[C@H]1O`, for which the activity change, negative = inhibition in assay [1] is -10%; in assay [2] it was 1.17%; in assay [3], -4.2%; in assay [4], -5.15%; in assay [5], 4.93%.
In the same order, the values of `C=C1C(=O)O[C@H]2C3=C(C)CCC[C@]3(C)C(=O)C[C@@H]12` are 1.43%, 3.66%, 9.55%, -6.8% and 2.46%.
Consider `CNC(=O)N1CCC(C2CCN(C(=O)NCc3cccc(OC)c3)C2)CC1` (stereo not given), for which the activity change, negative = inhibition in assay [1] was -2.55%; in assay [2], -1.71%; in assay [3], 1.03%; in assay [4], -5.42%; in assay [5], -2.77%.
Turning to `COc1ccccc1CN1C(=O)c2ccc(-c3ccccc3)n2CC1(C)C(=O)NC1CCCCCC1` (stereo not given), the activity change, negative = inhibition in assay [1] is -3.06%; in assay [2], 3.12%; in assay [3], -5.07%; in assay [4], -12.5%; in assay [5] it was -3.71%.
For the compound `CCOC(=O)c1cc2n(n1)CC(C)(C(=O)NC1CCCCC1)N(Cc1ccc(OCC)cc1)C2=O` (stereo not given), the activity change, negative = inhibition is 7.15% in assay [1]; 2.51% in assay [2]; 2.62% in assay [3]; 1.53% in assay [4]; 7.05% in assay [5].
In the case of `O=C(NCC1CCCO1)C1CCN(C2CCN(C(=O)CCC3CCCCC3)CC2)CC1` (stereo not given), the activity change, negative = inhibition was -1.57% in assay [1]; 0.585% in assay [2]; 2.14% in assay [3]; -3.77% in assay [4]; -1.83% in assay [5].
`COc1ccc(OC2OC(CO[C@@H]3O[C@@H](C)[C@H](O)[C@@H](O)[C@H]3O)C(O)C(O)C2O)cc1OC` (stereo not given in full): the activity change, negative = inhibition in assay [1] is -4.66%; in assay [2] it was -0.493%; in assay [3], -18.9%; in assay [4] it was -9.63%; in assay [5], -7.66%.
Taken in the same sequence, the figures for `O=C(CC1CC(c2ccc(F)cc2F)=NO1)N1CCOCC1` (stereo not given) were -4.62%, -6.42%, -1.73%, -15.1% and -4.97%.
Turning to `CC(C)[S+](=O)([O-])N1CC2ON=C(C(=O)O)C2C1` (stereo not given), the activity change, negative = inhibition was -0.762% in assay [1]; -4.46% in assay [2]; 0.712% in assay [3]; -6.34% in assay [4]; -1.99% in assay [5].
Turning to `CC(=O)Nc1ccc([C@H](C)C(=O)Nc2ncc(C(C)C)s2)cc1`, the activity change, negative = inhibition in assay [1] is 2.67%; in assay [2] it was -2.63%; in assay [3], 6.28%; in assay [4], -31.4%; in assay [5], 0.707%.
Taken in the same sequence, the figures for `Cc1cccc(NC(=O)N2CCn3cccc3C2C)c1` (stereo not given) were -0.971%, 0%, 5.54%, -1.17% and 5.3%.
For the compound `CCN(CC)S(=O)(=O)c1ccc(-c2nc(C)ccc2OC)cc1`, the activity change, negative = inhibition was -5.83% in assay [1]; -4.1% in assay [2]; -3.12% in assay [3]; -12% in assay [4]; -10.4% in assay [5].
Regarding `COCc1cn(C[C@H]2C[C@@H](NC(=O)c3ccc(C#N)cc3)[C@H](O)[C@@H]2O)nn1`, the activity change, negative = inhibition in assay [1] is -6.88%; in assay [2], -10.6%; in assay [3], -6.67%; in assay [4], -15.9%; in assay [5], -14.8%.
In the case of `COc1nc(C)cnc1NS(=O)(=O)c1cccnc1-c1ccc(-c2nnco2)cc1`, the activity change, negative = inhibition in assay [1] was 4.4%; in assay [2], 3.72%; in assay [3], 6.97%; in assay [4] it was -7.36%; in assay [5] it was 0.49%.
In the case of `Cc1ccc(NS(=O)(=O)c2cc3c(cc2Cl)n(C)c(=O)n3C)cc1`, the activity change, negative = inhibition is -1.4% in assay [1]; 3.87% in assay [2]; -6.79% in assay [3]; -13.3% in assay [4]; -5.87% in assay [5].
On to `CC1CCC(N2C(=O)c3ccc(-c4ccco4)n3CC2(C)C(=O)NC2CCCCCC2)CC1` (stereo not given), for which the activity change, negative = inhibition in assay [1] was -4.72%; in assay [2] it was 4.7%; in assay [3], -3.16%; in assay [4], -7.51%; in assay [5], -5.15%.
As for `O=C1CCN(Cc2cccc(F)c2)CCCOCCN1`, the activity change, negative = inhibition in assay [1] was -4.47%; in assay [2], -12.2%; in assay [3] it was -1.88%; in assay [4], -9.79%; in assay [5], -5.07%.
Taken in the same sequence, the figures for `CN(C)c1nc(-c2ccncc2)nc2c1CCN(C(=O)c1cc(=O)[nH][nH]1)C2` were -12.5%, -6.07%, -5.08%, -8.69% and 0.207%.
Taken in the same sequence, the figures for `CCN(CC)CCCN(c1ccccc1)C1Cc2ccccc2C1` were -7.12%, 3.14%, -9.07%, -14.3% and 4.82%.
Take `CC1(C(=O)NC2CCCCCC2)Cn2c(ccc2-c2ccco2)C(=O)N1CCCN1CCCCC1` (stereo not given): the activity change, negative = inhibition is 0.274% in assay [1]; 4.89% in assay [2]; -2.07% in assay [3]; -1.26% in assay [4]; -18.7% in assay [5].

For the origin of these results see PubChem BioAssay AID1745853 (National Center for Advancing Translational Sciences (NCATS), 2022).
